Measurements from PubChem BioAssay (NCI).
Some structures have more than one record in an assay (separate samples or runs), and their calls can disagree.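 48-hour exposure, single concentration, 96-well plates; percent growth endpoint where 0 means no net growth. Active: below 10.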 Certain results were filed several times, with different values. Only these are listed. There may be further records. This drug was run again and again over the years, at the concentration stated with the values; each value is one run. Signs of the kind (2×) count equal records among those shown.

Test system: UACC-62 melanoma
Test: NCI-60 one-dose screen, 48 h (100 = growth as untreated, 0 = no growth, -100 = all killed)

## COc1cccc2c1C(=O)c1c(O)c3c(c(O)c1C2=O)C[C@@](O)(C(=O)CO)C[C@@H]3OC1CC(N)C(O)C(C)O1 (some centres not stated)
0.25 µM, runs of 2018
  growth: inactive: 29.5, 35.7, 19.8 (2×), 16.3, 15.6, 17.2, 12.4, 13, 18, 14.4, 16.4, 24.9, 11.9, 15.8, 24.5 (2×), 33.8, 29.8 (2×), 15.2, 15.7, 20.2, 21.8, 18.8, 10.9, 24.3, 27.9, 10.4, 14.6, 26.1, 12.2, 19.3, 35.1, 32.5, 27.4, 21.4 (2×), 26.2, 20.7, 17.1 (2×), 21, 22.9, 20, 31.3, 33.1, 33.5, 21.5% and active: 8.46%, 8.34%
0.25 µM, runs of 2019
  growth: inactive: 13.4, 16.1 (2×), 16.3, 27.2 (2×), 32.9, 21.5, 23.4, 18.9, 29.9, 30.1, 30.3, 13.7, 10, 25.7, 12.8, 32, 29.5, 22.3 (2×), 21.4, 23.1, 23.7, 27.4, 19.2, 18.8, 24.3, 22.2, 20.2, 18.6, 19.3, 21.1, 32.5, 24.4, 26.8, 21.9, 17, 15.4% and active: 7.05, -7.73, -0.145, 5.99, 7.83, 6.16, 5.53, 5.8%
0.25 µM, runs of 2020
  growth: inactive: 26.8, 32.5, 30.4, 18, 25.7, 30, 28.2, 23.6, 35.7, 18.5, 25.8, 13, 25.5, 26.5, 25.6, 35, 43.4, 22.2, 32.9, 36.8, 46.3%
0.25 µM, runs of 2021
  growth: inactive: 23.9, 37.1, 27.5, 19.3, 23.8, 25.7, 29.8, 16.8 (3×), 13.3, 24.3, 20.2, 17, 20.8 (2×), 18.6, 17.9, 21.4, 10.1, 14.3 (2×), 11.8, 15.1, 15, 24.2, 27.8, 27.2, 28.9, 32.3, 26.7, 13.1, 23, 19.8, 22.9, 26, 15.9, 14.6, 22.7, 19.1, 30.9, 16.3, 32, 23.4% (2×) and active: 6.29%
0.25 µM, runs of 2022
  growth: active: -65.4, -65, -91.1, 3.5, -38.1, 0.44, -7.14, 3.37, -2.2, 7.3, 6.52, 9.65, 0.399, 2.05, -2.17, 2.62, 5.03, 9.51, 6.06% and inactive: 12, 11.9, 12.3, 20, 38.9, 46.4, 10.6, 47.6, 37.1, 48%
25 µM, runs of 1991
  growth: active: 8.49, -77.3, -96.4, -100, -85.6, -70.1, -86.4, -88.6, -64.4, -98.2, -84, -71.7, -67.2, -90.2, -96, -97.8% and inactive: 18.6%
25 µM, runs of 1992
  growth: active: -83.5, -63.8, -77.7, -91.6 (2×), -62.1, -99.5, -99.8 (3×), -63.9 (2×), -48.4, -71.6, -77, -61.4, -88.6, -93 (2×), -92.5, -96.6 (2×), -97.4, -99.3 (4×), -43.2, -72.2 (3×), -94.5 (2×), -89.8, -93.4, -66, -90.2, -80.3, -73.2, -55.9, -92.9, -97, -100 (7×), -62.7, -93.2, -95.4 (3×), -95.1, -91.9, -71.9, -87.2, -85.8, -90.3, -81.3, -89.5, -70.1 (2×), -94.7, -95.7, -94.9, -80.2, -79.9, -83, -48.1, -92.2 (2×), -71.4, -52.1 (2×), -91.1, -93.3, -97.9, -86.6, -88.2, -98.6, -69.9, -83.2, -70.8, -67.3, -93.8, -96, -97.2, -84.6, -0.502, 0.925, 0.524, -61.6, -60.7, -88.3 (2×), -74.7, -63.1, -69.3, -93.9, -38.5, -93.5, -99.6, -89.7, -66.2, -68.3, -91.3, -98.2, -47.1, -74.5, -59.3, -89.3, -96.9, -60.1, -91.4, -81.8, -90.7, -97.8, -68, -98% and inactive: 103%
25 µM, runs of 1993
  growth: active: -86.8 (2×), -58.5 (2×), -12.5, -84.5, -97.1, -37.2, -59, -65.5, -89.5, -99.4, -34.6, -53.8 (2×), -82.6, -60.8, -79, -74.5, -61.8, -94.4, -87.8, -80.8, 8.96, -50.4, -68.2, -74.6, -6.42, -73.6, -44.3, -46.7, -50, -80.5, -73.4, -81.8, -96.7, -84.6, -79.5, -99.2, -59.5, -59.1, -87.9, -16.6, -66.7, -88.3%
25 µM, runs of 1994
  growth: active: -91.6, -52.6, -71.9, -86.3, -81.8, -89.6, -90, -95.8, -83.3, -99.8 (2×), -33.3, -98.4, -55.3, -73.8, -90.3, -93.2, -99.5, -60.3, -54.8, -89.4, -82.5, -15.7, -46.9, -73, -98, -64, -54.5, -96.4, -29.5, -71.7, -68.9% and inactive: 95%
25 µM, runs of 1995
  growth: active: -43.7, -55, -81.9, -50.1, -93.1, -32.6, -72.9, -35.4, -93.6, -53.2, -77, -77.2, -59.7, -48.6, -84.6, -100 (4×), -83.1, -85.8, -75, -87.7, -50.6, -79.1, -91.4, -82.3, -57.9, -93.9, -86.7, -83, -67.1, -88.8, -66, -89.1, -67.8, -93.5, -97, -90.7, -93.3, -85.1, -94.8, -92, -91.8, -77.9, -82.8, -92.9, -80.7, -78.7, -85.3 (2×), -96.2%
25 µM, runs of 1996
  growth: active: -60.5, -74 (2×), -78.6, -81.2, -44.6, -92.9, -65.5, -52.6, -76, -79.8, -100 (13×), -74.4, -77.8 (2×), -96.6, -83.3, -89.7, -89, -94.7 (2×), -45, -84 (2×), -95.6, -97.8, -74.9, -88.4, -59.7, -84.9, -93.1, -66.9, -76.4, -50.1, -87.9, -88.8, -56.7, -95 (2×), -94.2, -91.2, -69.2, -70.8, -73.5, -95.2, -83.8, -88.2, -74.1, -90.1 (2×), -97.4 (2×), -72.7, -60.4, -80.2 (2×), -97.7, -64.5, -79.5, -94.9, -79.9, -89.5, -85.9, -85, -63.4, -83.4, -63.5 (2×), -98.7, -71, -55.2, 4.31, -89.8, -93.5, -86.2, -92.3, -82.1, -87.2, -81.5, -75.9, -58.9, -84.1, -86.8, -51.9, -97.5, -88.9, -91.6, -95.7, -54.2, -97.9% and inactive: 83, 90.8, 105, 50.1%
25 µM, runs of 1997
  growth: active: -88.5, -71.5, -96.7, -80, -76.1, -99.2, -49.3, -100 (2×), -83.8, -74.5, -85.4 (2×), -89.2, -97.2, -93.4, -96.1, -72.7, -75.3, -77.6, -80.7, -75.9, -87.7 (2×), -92, -86.6, -80.2, -82.2, -93.6, -93.3, -77.9, -54.5, -82, -95.4, -96.6, -56.7, -67.7, -63.6, -23.1, -76, -24.8, -71.6, -53.7, -38.1, -77.5, -38.5, -58.8, -83.6, -92.2, -95.3, -87.6, -86.1, -53.6, -62.7, -48.1, -90.6% and inactive: 66.7%, 91.5%
